Experimental data taken from the antibiotic and cytotoxicity screens of Wong et al. (2023).
The list shows a part of the results.

Tests used:
HSkMC = human skeletal muscle cells; test: cytotoxicity call (relative viability < 0.9); conditions: 10 µM
S. aureus RN4220 = test: growth inhibition call (relative growth <= 0.2); conditions: 50 µM

Row | Compound | cytotoxicity call (HSkMC) | growth inhibition call (S. aureus RN4220)
1 | Cc1noc(C)c1S(=O)(=O)Nc1ccc2c(c1)C(=O)N([C@@H](C)CO)C[C@H](C)[C@@H](CN(C)C(=O)Nc1ccccc1)O2 | inactive | inactive
2 | CO[C@H]1CN(C)C(=O)c2ccc(NC(=O)Nc3cccc(Cl)c3)cc2OC[C@@H](C)N(C(=O)Nc2c(C)noc2C)C[C@H]1C | inactive | inactive
3 | COc1ccc(S(=O)(=O)N2C[C@H](O)COC[C@@H]3O[C@H](CC(=O)NCc4ccc(Cl)c(Cl)c4)CC[C@H]32)cc1 | inactive | inactive
4 | O=C(C[C@@H]1C=C[C@@H](NC(=O)C2CC2)[C@H](CO)O1)NCCCN1CCOCC1 | inactive | inactive
5 | CN1CCN(C(=O)C[C@@H]2CC[C@H]3[C@H](COc4ccc(NC(=O)C5CCOCC5)cc4C(=O)N3C)O2)CC1 | inactive | inactive
6 | C[C@H]1CN([C@@H](C)CO)S(=O)(=O)c2ccc(C#CCN(C)C)cc2O[C@H]1CN(C)C(=O)c1ccccc1F | inactive | inactive
7 | O=C(C[C@H]1C=C[C@H](NC(=O)CN2CCOCC2)[C@@H](CO)O1)NCCc1ccccc1 | inactive | inactive
8 | Brc1ccc2nc(N3CCCN(Cc4ccccc4)CC3)nc(NC3CCN(Cc4ccccc4)CC3)c2c1 | active | active
9 | COc1ccc(NC(=O)Nc2ccc3c(c2)C(=O)N([C@@H](C)CO)C[C@H](C)[C@@H](CN(C)C(=O)Nc2ccccc2)OCCCC[C@H](C)O3)cc1 | inactive | inactive
10 | C[C@@H]1CN([C@H](C)CO)C(=O)c2cccc(NS(=O)(=O)c3cn(C)cn3)c2O[C@H]1CN(C)Cc1ccc(C(=O)O)cc1 | inactive | inactive
11 | COc1cccc(S(=O)(=O)N2C[C@H](O)COC[C@@H]3O[C@H](CC(=O)N4CCN(C)CC4)CC[C@H]32)c1 | inactive | inactive
12 | COc1ccc(CN(C)C[C@H]2OCCCC[C@@H](C)Oc3ccc(NC(=O)Nc4c(C)noc4C)cc3C(=O)N([C@@H](C)CO)C[C@@H]2C)cc1 | inactive | inactive
13 | CC(C)NC(=O)Nc1cccc2c1O[C@@H](CN(C)C(=O)Nc1ccc3c(c1)OCO3)[C@@H](C)CN([C@@H](C)CO)C2=O | inactive | inactive
14 | CNCc1ccncc1 | inactive | inactive
15 | C[C@H]1CCCCO[C@H](CN(C)C(=O)Nc2ccc(F)cc2)[C@@H](C)CN([C@@H](C)CO)C(=O)c2cc(NC(=O)C3CCCCC3)ccc2O1 | inactive | inactive
16 | COc1ccc(CN(C)C[C@H]2Oc3ccc(NS(=O)(=O)c4c(C)noc4C)cc3CC(=O)N([C@H](C)CO)C[C@@H]2C)cc1 | inactive | inactive

Row | Compound | cytotoxicity call (HSkMC) | growth inhibition call (S. aureus RN4220)
17 | Cn1nnnc1NCc1ccccc1 | inactive | inactive
18 | Cc1ccc(S(=O)(=O)N2C[C@@H](O)COC[C@H]3O[C@H](CC(=O)NCCCN(C)C)CC[C@@H]32)cc1 | inactive | inactive
19 | Cc1noc(C)c1S(=O)(=O)Nc1ccc2c(c1)C(=O)N([C@H](C)CO)C[C@H](C)[C@H](CN(C)Cc1ccc3c(c1)OCO3)O2 | inactive | inactive
20 | COc1ccc(CN(C)C[C@H]2OCCCC[C@@H](C)Oc3ccc(NC(=O)c4ccncc4)cc3C(=O)N([C@@H](C)CO)C[C@@H]2C)cc1 | inactive | inactive
21 | Cc1ccc(S(=O)(=O)Nc2ccc3c(c2)C(=O)N([C@H](C)CO)C[C@@H](C)[C@H](CN(C)C(=O)NC2CCCCC2)OCCCC[C@@H](C)O3)cc1 | inactive | inactive
22 | C[C@H]1CCCCO[C@H](CN(C)C(=O)C2CCCCC2)[C@@H](C)CN([C@@H](C)CO)C(=O)c2cc(NC(=O)NC3CCCCC3)ccc2O1 | inactive | inactive
23 | Cc1ccc(S(=O)(=O)N(C)C[C@@H]2OCCCC[C@H](C)Oc3ccc(NC(=O)NC4CCCCC4)cc3C(=O)N([C@@H](C)CO)C[C@@H]2C)cc1 | inactive | inactive
24 | CC(=O)NCC(=O)N1Cc2nccn2C[C@H](Cn2nc(C)nc2C)C1 | inactive | inactive
25 | C[C@@H]1CCCCO[C@@H](CN(C)Cc2ccc3c(c2)OCO3)[C@H](C)CN([C@@H](C)CO)C(=O)c2cc(NC(=O)Nc3ccc4c(c3)OCO4)ccc2O1 | inactive | inactive
26 | C[C@H]1CCCCO[C@@H](CN(C)Cc2ccc3c(c2)OCO3)[C@@H](C)CN([C@@H](C)CO)C(=O)c2cc(NC(=O)Nc3ccc4c(c3)OCO4)ccc2O1 | inactive | inactive
27 | C[C@@H]1CN([C@@H](C)CO)C(=O)c2cc(NS(=O)(=O)c3ccccc3)ccc2O[C@@H](C)CCCCO[C@H]1CN(C)Cc1ccc(C(=O)O)cc1 | inactive | inactive
28 | CC(C)NC(=O)N(C)C[C@H]1Oc2ccc(NC(=O)CCN3CCOCC3)cc2C(=O)N([C@H](C)CO)C[C@@H]1C | inactive | inactive
29 | CO[C@@H](CN(C)S(=O)(=O)c1cn(C)cn1)[C@@H](C)CN(C(=O)Nc1ccc(C(F)(F)F)cc1)[C@@H](C)CO | inactive | active
30 | C[C@H]1CN([C@@H](C)CO)C(=O)c2ccccc2-c2ccccc2CO[C@@H]1CN(C)Cc1ccc(Cl)c(Cl)c1 | inactive | inactive
31 | COCC#Cc1ccc2c(c1)O[C@H](CN(C)C(=O)Nc1ccccc1F)[C@H](C)CN([C@H](C)CO)S2(=O)=O | inactive | inactive
